Among all 45,000 compounds or so, about 200 (0.44%) were called active. Another 7% or so got no clear call; they are omitted. Calls follow the shape of the dose curve; as a rule, active = well fitted activation curve with a large enough effect; inconclusive = small, poorly fitted or top-dose-only effect; inactive = no such curve, though single readings can be large or run the other way. The list shows a part of the results.
Potency is read from the fitted curve at half-maximal effect.

This assay is described as follows: qHTS of TDP-43 Inhibitors: NCGC Sytravon Library Screen. Also: nearly all actives have a fitted effect of over 55% in size. As to growth rescue (activation): 0% is about no effect. To be noted: yeast TDP-43 toxicity rescue, BacTiter-Glo growth, 24 h; series mostly up to 46.1 µM; growth rescue (activation): at the top concentration. The method, boiled down:
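TDP-43-expressing yeast, pregrown in raffinose, seeded at OD600 0.02 in galactose medium with compound for 24 hr at 30 deg C. Growth read by BacTiter-Glo luminescence, so rescue of toxicity appears as activation.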
In general terms: qHTS replaces the single test concentration by a dilution series.
As for `Cc1ccc(NC(=O)C2CC(=O)n3c(nc4ccccc43)N2)cc1C` (stereo not drawn), the “growth rescue (activation)” value is inactive: 4.28%.

In the case of `CCn1c(C(=O)NCc2ccc(C)cc2)cc2sc(Cl)cc21`, the “growth rescue (activation)” value is inactive: -2.13%.

In the case of `N#CC(c1ccc(Cl)nn1)c1c(F)cccc1Cl` (stereo not drawn), the “growth rescue (activation)” value is inactive: 2.62%.

For the compound `COc1ccc(CCN(Cc2cccs2)S(=O)(=O)c2ccc(S(=O)(=O)N(C)C3CCCCC3)cc2)cc1OC`, the “growth rescue (activation)” value was inactive: -0.215%.

With `O=C(CCc1ccccc1)NNC(=O)COc1ccc(Br)cc1`, the “growth rescue (activation)” value is inactive: -0.227%.

Consider `Fc1cc(Cl)ccc1NC1=NCCCCC1`, for which the “growth rescue (activation)” value was inactive: 4.29%.

For the compound `NS(=O)(=O)c1ccc(CNC(=S)Nc2ccc(F)c(Cl)c2)cc1`, the “growth rescue (activation)” value was inactive: 6.46%.

For `NNC(=O)c1ccccc1-n1cccc1`, the “growth rescue (activation)” value is inactive: -2.2%.

Consider `COc1cc(CNC(=O)c2cc(-c3cc(C)cc(F)c3)n[nH]2)cc(OC)c1`, for which the “growth rescue (activation)” value was inactive: 4.43%.

Take `CCc1nc2oc3ccccc3c(=O)c2c(=O)n1-c1ccc(C)cc1`: the “growth rescue (activation)” value is inactive: 3.69%.

`CC1(c2ccc(OC(F)F)cc2)NC(=O)N(CC(=O)Nc2ccc(Cl)cc2F)C1=O` (stereo not drawn): the “growth rescue (activation)” value is inactive: -10.6%.

Take `Cc1ccccc1OCCC(=O)NCCc1ccc(S(N)(=O)=O)cc1`: the “growth rescue (activation)” value is inactive: -0.332%.

With `COc1cc(/C=N/NC(=O)c2cccc(N3CCCC3=O)c2)ccc1O`, the “growth rescue (activation)” value is inactive: -5.45%.

Take `COc1ccc(C(=O)OCC(=O)Nc2cccc(C(C)=O)c2)cc1OC`: the “growth rescue (activation)” value is inactive: 12.2%.

As for `Cc1ccc(S(=O)(=O)N2CCN(C(C(=O)Nc3ccc(F)cc3)c3ccccc3)CC2)cc1` (stereo not drawn), the “growth rescue (activation)” value is inactive: -14.9%.

Regarding `COc1ccc(OC)c(NC(=O)c2nc(S(=O)(=O)Cc3ccccc3)ncc2Cl)c1`, the “growth rescue (activation)” value was inactive: -8.73%.

Consider `CC(=O)Nc1cccc(-c2cc(N3CCN(CCO)CC3)n3nccc3n2)c1`, for which the “growth rescue (activation)” value was inactive: -9.71%.

As for `Cc1nc([N+](=O)[O-])c(C(=O)OCc2cccc(Br)c2)n1C`, the Potency was active: 12.6 µM.

On to `O=C(c1cc(Cl)nc2ccccc12)N1CCN(Cc2ccc3c(c2)OCO3)CC1`, for which the “growth rescue (activation)” value is inactive: 31.8%.

Turning to `O=C(CNS(=O)(=O)c1cccc(Br)c1)NCCCc1ccccc1`, the “growth rescue (activation)” value was inactive: 0.929%.

On to `CN(C)c1cccc(NC(=O)c2ccco2)c1`, for which the “growth rescue (activation)” value is inactive: 26.1%.

With `Nc1c(C(=O)Nc2ccccc2Cl)nnn1-c1ccc2c(c1)OCCO2`, the “growth rescue (activation)” value is inactive: -5.8%.

Regarding `O=C(C1=C(O)C(=O)N(CCN2CCOCC2)C1c1cccc(Br)c1)c1cccs1` (stereo not drawn), the “growth rescue (activation)” value was inactive: 4.52%.

For `COC(=O)N1N=C(c2ccc(Br)cc2)CC1(O)C(F)(F)F` (stereo not drawn), the “growth rescue (activation)” value was inactive: 25.4%.

As to `O=c1[nH]c(CSc2ncc(C(F)(F)F)cc2Cl)nc2ccccc12`, the “growth rescue (activation)” value is inactive: 19.6%.

Regarding `O=S(=O)(NCCc1ccccc1)c1cccc2cccnc12`, the “growth rescue (activation)” value is inactive: 20.2%.

`COC(=O)c1ccccc1NC(=O)CSc1n[nH]c(-c2ccco2)n1`: the “growth rescue (activation)” value was inactive: 11.4%.

On to `C/C(=N\NC(=O)c1cc(C(C)C)[nH]n1)c1ccncc1`, for which the “growth rescue (activation)” value was inactive: 14.4%.

With `CCC(C)C1Nc2ccc(C(=O)NCc3ccc4c(c3)OCO4)cc2NC1=O` (stereo not drawn), the “growth rescue (activation)” value was inactive: 3.28%.

For the compound `COc1cccc(C(=O)NC2CC(C)(C)NC(C)(C)C2)c1OC`, the “growth rescue (activation)” value was inactive: 1.07%.

`Cc1ccc(N/N=C(\C#N)C(N)=S)c(C)c1`: the “growth rescue (activation)” value was inactive: -80.4%.

Consider `O=C(O)CCCn1cc(NC(=O)COc2ccc(F)cc2F)cn1`, for which the “growth rescue (activation)” value is inactive: 5.03%.

Regarding `Cc1c(Cl)cccc1NC(=S)NCCN1CCOCC1`, the “growth rescue (activation)” value was inactive: -17.5%.

For `Cc1cc(C)cc(NC(=O)Cn2cc(C(=O)c3ccncc3)c(=O)c3cc(C)c(C)cc32)c1`, the “growth rescue (activation)” value is inactive: 0.628%.

With `COC(=O)C1CC23C=CCN4CCC5(c6ccccc6NC15C2C)C43` (stereo not drawn), the “growth rescue (activation)” value is inactive: 4.7%.

As to `O=C(N/N=C/c1cccc(Br)c1)c1ccc(Br)cc1`, the “growth rescue (activation)” value was inactive: 3.73%.

As to `CCc1nc2c(OCC(=O)C(C)(C)C)cccn2c1N(C)C(=O)CC(C)C`, the “growth rescue (activation)” value is inactive: 2.07%.

On to `COC(=O)c1ccccc1S(=O)(=O)N1CCC(C(=O)OCC(=O)NCC(F)(F)F)CC1`, for which the “growth rescue (activation)” value is inactive: 11%.

Regarding `CC(=O)c1c(C)[nH]c(C2=NNC(=NC(C)(C)C)SC2)c1C`, the “growth rescue (activation)” value was inactive: 11.4%.

For the compound `CCOC(=O)c1c(NC(=O)C[n+]2ccc(N(C)C)cc2)sc(C)c1C`, the “growth rescue (activation)” value was inactive: 2.27%.

With `O=C1S/C(=C/c2ccccc2)C(=O)N1CC(O)Cn1c2ccccc2c2ccccc21` (stereo not drawn), the “growth rescue (activation)” value was inactive: 40%.

For the compound `Cc1ccnc(SCC(=O)c2cc3ccccc3o2)n1`, the “growth rescue (activation)” value was inactive: -0.677%.

On to `COc1ccc(S(=O)(=O)N2CCOCC2)cc1NC(=O)Cc1ccccc1Cl`, for which the “growth rescue (activation)” value is inactive: 8.81%.

Turning to `CCCCn1c(O)c(/C=C2\C=Nc3ccccc32)c(=O)[nH]c1=O`, the “growth rescue (activation)” value is inactive: -4.23%.

In the case of `COc1ccc2c(c1)C(C)=CC(C)(C)N2S(=O)(=O)c1ccc(Br)cc1`, the “growth rescue (activation)” value was inactive: 30.5%.

As to `Cc1ccc(S(=O)(=O)Nc2c(O)c3ccccc3oc2=O)cc1C`, the “growth rescue (activation)” value was inactive: 14.4%.

Take `CCCCn1c(SCC(=O)c2ccc3c(c2)OCCO3)nnc1-c1ccoc1C`: the “growth rescue (activation)” value is inactive: 20.7%.

Regarding `O=C(c1ccco1)N1CCN(c2cc(=O)n(C3CCCCC3)c(=O)[nH]2)CC1`, the “growth rescue (activation)” value is inactive: 21.8%.

As for `CCCSc1ncc(Cl)c(C(=O)Nc2ccc(S(=O)(=O)N3CCC(C)CC3)cc2)n1`, the “growth rescue (activation)” value was inactive: 8.37%.

Take `O=C1c2ccccc2C(=O)C1c1ccc(Cl)cc1`: the “growth rescue (activation)” value was inactive: 14.2%.

`COC(=O)C(C)Sc1nc2c(c(=O)n(C)c(=O)n2C)n1Cc1cccc(C)c1` (stereo not drawn): the “growth rescue (activation)” value is inactive: 34.7%.

As for `CCCn1c(N)c(C(=O)CSc2nnnn2-c2ccc(O)cc2)c(=O)n(C)c1=O`, the “growth rescue (activation)” value was inactive: -4.46%.

Consider `O=C(Nc1ccccc1Cl)c1cc(C2CCCCN2C(=O)CCCc2ccccc2)on1` (stereo not drawn), for which the “growth rescue (activation)” value is inactive: 2.28%.

The record behind these values is PubChem BioAssay AID1347073 (National Center for Advancing Translational Sciences (NCATS), 2019).
